Reference: the supplement of paper PMC3334620
In all, about 33,000 sequences were measured (“E-score (-0.5 to 0.5)”: median about -0.012, highest 2% from about 0.27 on). This is one part of the list.

The sequences below were run against T1, Vhr1 (UniProt P40522) (assay: PBM E-score (8-mer binding enrichment) (E-score (-0.5 to 0.5)); higher = stronger / more preferred TF binding; most listed sequences are background and not binding sites). Details: protein concentration: 200 nM; construct: GST-full length.
T1 sequence: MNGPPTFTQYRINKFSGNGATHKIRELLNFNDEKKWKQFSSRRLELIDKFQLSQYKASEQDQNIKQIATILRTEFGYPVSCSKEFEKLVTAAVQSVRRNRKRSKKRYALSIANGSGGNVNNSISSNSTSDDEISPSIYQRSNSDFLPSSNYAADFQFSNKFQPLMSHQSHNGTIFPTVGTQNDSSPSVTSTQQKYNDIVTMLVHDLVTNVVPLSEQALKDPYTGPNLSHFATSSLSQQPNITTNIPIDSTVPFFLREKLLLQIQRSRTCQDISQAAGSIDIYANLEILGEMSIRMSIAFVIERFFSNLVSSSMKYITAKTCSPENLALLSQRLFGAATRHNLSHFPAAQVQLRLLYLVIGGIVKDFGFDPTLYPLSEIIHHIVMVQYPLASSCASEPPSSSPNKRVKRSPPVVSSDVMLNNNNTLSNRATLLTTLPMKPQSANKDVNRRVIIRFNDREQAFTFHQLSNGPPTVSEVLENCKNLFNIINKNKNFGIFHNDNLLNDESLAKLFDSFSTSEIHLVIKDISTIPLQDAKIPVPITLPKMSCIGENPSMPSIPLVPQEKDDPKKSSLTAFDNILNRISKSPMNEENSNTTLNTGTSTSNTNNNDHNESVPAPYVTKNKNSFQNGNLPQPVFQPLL
Description: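 Universal 'all 10-mer' protein binding microarrays (Agilent AMADID 015681) probed with GST-tagged S. cerevisiae TFs (full-length or DBD) made by in vitro transcription/translation (PURExpress), about 100-200 nM. Bound TF was detected with fluorescent anti-GST. Each ungapped 8-mer (which stands for itself and its reverse complement) is scored by the PBM enrichment score (E-score), a modified Wilcoxon-Mann-Whitney statistic from -0.5 to +0.5, computed with the Universal PBM Analysis Suite. Scale: above 0.35 generally sequence-specific binding.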

In order of rising “PBM E-score” value:
1. CCTTTAGC  -0.354
2. AAACGTTT  -0.344
3. CGTAAGAA  -0.34
4. CGTAGACC  -0.297
5. CCTTACAG  -0.288
6. CTTTTATA  -0.286
7. ATAGGGCC  -0.28
8. CTAAGGAA  -0.266
9. GCCTCCAC  -0.261
10. TGGGGGAA  -0.257
11. TAAAGGAA  -0.25
12. TCCTAGAA  -0.237
13. ATGTTTTA  -0.227
14. TAGGGGCA  -0.216
15. AGAGAGCC  -0.21
16. CCAAGCCC  -0.207
17. CCAAAGCG  -0.206
18. ACATTGGG  -0.206
19. AAGGTAGC  -0.205
20. CATGTCAA  -0.203
21. AGAGCTGC  -0.194
22. AGCTCTCC  -0.191
23. AAATTGGG  -0.19
24. AGTTAACT  -0.184
25. GGCGTTAA  -0.183
26. GGAGAAGA  -0.18
27. AGTGCGTC  -0.18
28. AATGGGGA  -0.178
29. AGTATAGC  -0.174
30. GTTGCGGA  -0.172
31. AGAGGGCC  -0.166
32. ACAGGGTG  -0.155
33. CCCCCTGA  -0.153
34. AGGGGGCA  -0.151
35. ATGCTGTC  -0.123
36. AATATGGC  -0.123
37. GCCAGACC  -0.115
38. CAAGCTAC  -0.113
39. CCGTGTCG  -0.113
40. GATAATCC  -0.112
41. GACGCGCC  -0.112
42. ATGCTACA  -0.11
43. GCCCAGGC  -0.107
44. CAAAATGC  -0.104
45. AGATCCTC  -0.103
46. AAACAGTA  -0.103
47. CCTTATCC  -0.101
48. CAGTAACA  -0.0965
49. AAGAAACT  -0.0916
50. CCCCCTCC  -0.0898
51. ATGAAGGG  -0.0895
52. CAGGCCAA  -0.0839
53. CAATTTTC  -0.0832
54. ATAAGCCA  -0.0824
55. CGCCGAAG  -0.0818
56. GATTGTCC  -0.0817
57. TACTTAGA  -0.0792
58. CTAACGCC  -0.0753
59. ACAGCGGT  -0.075
60. CTGTGCCC  -0.0743
61. ATCGTTTA  -0.0734
62. ATAGGGCG  -0.0674
63. ACGAGCAA  -0.0519
64. AGCTGGAG  -0.0498
65. GCTCACGA  -0.045
66. CGGATGAA  -0.0447
67. CAGAAGAC  -0.0431
68. ATCTGTTA  -0.0428
69. CGAGCCTA  -0.0407
70. GCTATGTA  -0.0404
71. ATATTGGG  -0.038
72. ACCAGGCA  -0.0327
73. GAGGAGAC  -0.0319
74. CAAAATGA  -0.029
75. CACGTTAG  -0.0287
76. CGATCCCA  -0.0258
77. TCCGGGCA  -0.025
78. ACAGTTAC  -0.0245
79. CCGCCGGA  -0.0234
80. CGCGTACA  -0.018
81. CCTCGATC  -0.0169
82. ACCACTGG  -0.0115
83. CCACGGTA  -0.0101
84. CTGCTCGA  -0.00983
85. AATGGGCG  -0.00832
86. CATCGAAA  -0.00635
87. AATGTCGG  -0.00533
88. CTACGTCA  -0.00453
89. AGCATCTG  -0.00281
90. AAGAGTTA  -0.00174
91. AGGGTTAT  -0.00112
92. TAACCTGA  0.00042
93. AGAGCGCG  0.00097
94. GTGAGGCA  0.00166
95. ACAGGTGG  0.00194
96. CCGAGTTC  0.00501
97. ACCGATCC  0.00526
98. ACCCGTCC  0.00693
99. CCCTATTA  0.00823
100. CGGTCGGA  0.00853
101. CGTTGGGA  0.0104
102. AACCACGC  0.0111
103. GACACAAC  0.0166
104. AGGGCTTG  0.0179
105. CTGGCAGA  0.0235
106. AGTGTTCA  0.0309
107. CCTGCACG  0.0318
108. AATGACCC  0.0322
109. TGAATAAA  0.0352
110. AGCAGCAG  0.036
111. ACAACGAA  0.037
112. CAATGAAC  0.0372
113. CGATACGC  0.0387
114. ACCATGAG  0.0389
115. CTATCGTA  0.0393
116. ACAGAGCC  0.0426
117. AATACGCG  0.0497
118. CGACCACA  0.0511
119. ACACCACG  0.0515
120. CGGGATAG  0.0531
121. ATTATGGC  0.0532
122. CGCGTGCC  0.0556
123. AACCAAGC  0.0559
124. AAGCGCGC  0.0559
125. ACAATTCC  0.0579
126. CCCCTATA  0.0591
127. CTATTGAC  0.0597
128. ACGTGCTG  0.0599
129. ACAATATC  0.0645
130. GTGGTATA  0.0698
131. AGGTCCAG  0.0702
132. ACGAGTCT  0.0718
133. TAGCCCCA  0.0719
134. GAAACCAA  0.0781
135. CTATGGTA  0.0793
136. TTGATCAA  0.082
137. GACCATAA  0.0846
138. ATTCTACA  0.0873
139. GTCAACTA  0.0901
140. AGTGCACA  0.0902
141. ATCACGGA  0.0904
142. AAACTCGA  0.1
143. ACCATATG  0.1
144. CTACGGAG  0.105
145. ATCTCAAC  0.111
146. ACGAATCC  0.117
147. ATCAGTGG  0.122
148. GACAGTAA  0.127
149. AGCGTTCG  0.138
150. AGCTCGTG  0.145
151. TATCATCA  0.147
152. GTGGGATA  0.15
153. ACGCGCTG  0.152
154. TACAACCA  0.154
155. CATACCGC  0.156
156. CACCAATC  0.165
157. GTCACCAA  0.166
158. ATGCGCCC  0.169
159. ACTCGATA  0.169
160. CTGCACGA  0.169
161. AGCCTGTC  0.177
162. GCATATGA  0.19
163. CCATGAGA  0.191
164. CGCCCACA  0.193
165. ATGCGTGA  0.193
166. ACTGCAAT  0.198
167. ACACATGG  0.215
168. ACGGACGA  0.225
169. ACTCGCGA  0.227
170. AACATAAT  0.24
171. CCGCAGTC  0.274
172. GAATCAGC  0.307
